Positions count from the first letter of the chain named. Names and notes keep the numbering of the source. No constants are given. Whether binding was seen depends on the method and setting. For some assays here: In cells and extracts the contact can be indirect. Some entries that bind do so weakly or less than the wild type. Sequences can lack the tags named with a protein.

One assay addresses T1, GST-Snf1 (S. cerevisiae) (UniProt P06782).
T1 sequence: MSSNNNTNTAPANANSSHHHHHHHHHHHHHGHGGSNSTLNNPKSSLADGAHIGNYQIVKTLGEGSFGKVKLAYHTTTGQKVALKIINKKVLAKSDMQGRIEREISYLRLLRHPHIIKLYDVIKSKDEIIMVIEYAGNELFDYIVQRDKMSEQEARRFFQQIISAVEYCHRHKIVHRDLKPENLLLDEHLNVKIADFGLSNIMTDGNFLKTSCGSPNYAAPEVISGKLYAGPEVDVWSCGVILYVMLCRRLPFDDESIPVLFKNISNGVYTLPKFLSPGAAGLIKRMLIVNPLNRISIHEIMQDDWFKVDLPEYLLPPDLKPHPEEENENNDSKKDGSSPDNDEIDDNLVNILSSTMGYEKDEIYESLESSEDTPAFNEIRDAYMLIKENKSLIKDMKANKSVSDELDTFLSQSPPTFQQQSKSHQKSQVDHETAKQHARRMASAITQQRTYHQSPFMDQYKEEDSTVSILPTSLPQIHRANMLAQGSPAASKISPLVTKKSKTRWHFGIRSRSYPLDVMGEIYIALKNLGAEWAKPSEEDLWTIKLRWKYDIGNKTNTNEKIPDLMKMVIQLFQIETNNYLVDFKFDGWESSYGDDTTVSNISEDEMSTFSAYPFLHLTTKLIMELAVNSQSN
Briefly: pull-down; GST fusions on glutathione-Sepharose 4B beads, His-tagged protein in solution (His-Arf3 loaded with GDP or GTPγS); 50 mM Tris-HCl pH 7.5, 150 mM NaCl, 1% Triton X-100, 1 mM DTT, 10 mM MgCl2; 1 h, 4 °C; anti-His blot; both purified.

The target in another assay is T2, Snf1p-HA (S. cerevisiae) (UniProt P06782).
T2 sequence: T1 sequence
Put plainly: co-IP; lysates of Σ1278b yeast co-expressing Arf3p and Snf1p-HA; anti-HA agarose, 4 °C, 2 h; PBS with 1 mM DTT, 5 mM MgCl2; washes with 0.5% Triton X-100; blot for Arf3p; cells in YPD or after 2 h of glucose depletion (YP).

The target in assay [1] is T3, GST-Snf1-C (a.a. 311–633) (S. cerevisiae, UniProt P06782 311-633).
T3 construct: Snf1p, S. cerevisiae, C-terminal regulatory domain, a.a; 311–633; Vector pGEX4T-1; also called C-terminal regulatory domain of Snf1p; source: E. coli BL21 (DE3), purified (glutathione-Sepharose 4B)
T3 sequence (looked up): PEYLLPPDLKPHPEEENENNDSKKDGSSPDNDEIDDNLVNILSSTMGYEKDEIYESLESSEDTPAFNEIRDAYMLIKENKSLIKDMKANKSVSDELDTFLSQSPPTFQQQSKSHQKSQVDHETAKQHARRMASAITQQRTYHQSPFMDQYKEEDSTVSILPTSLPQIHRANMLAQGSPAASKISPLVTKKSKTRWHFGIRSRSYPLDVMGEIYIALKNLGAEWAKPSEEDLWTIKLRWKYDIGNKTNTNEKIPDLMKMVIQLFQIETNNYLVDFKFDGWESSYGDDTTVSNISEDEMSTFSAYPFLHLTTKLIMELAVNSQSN
Put plainly: pull-down; yeast cells lysed without or with EDTA; proteins of the lysate precipitated by GST-Snf1-C; blot for Arf3p; only the target purified.

B1: His-Arl1^T32N (protein, UniProt P38116 1-183)
chain: MGNIFSSMFDKLWGSNKELRILILGLDGAGKNTILYRLQIGEVVTTKPTIGFNVETLSYKNLKLNVWDLGGQTSIRPYWRCYYADTAAVIFVVDSTDKDRMSTASKELHLMLQEEELQDAALLVFANKQDQPGALSASEVSKELNLVELKDRSWSIVASSAIKGEGITEGLDWLIDVIKEEQL
Consider B1, for which, in the assay with GST-Snf1 (S. cerevisiae), the binding result was “no binding”.

B2: His-Arf3^T31N (natural protein, S. cerevisiae, UniProt P40994 1-183, looked up)
chain: MGNSISKVLGKLFGSKEMKILMLGLDKAGKNTILYKLKLNKIKTSTPTVGFNVETVTYKNVKFNMWDVGGQQRLRPLWRHYFPATTALIFVIDSSARNRMEEAKEELYSIIGEKEMENVVLLVWANKQDLKDAMKPQEVSDFLELEKNLKNQPWCVIGSNALSGQGLVEGLSWISNNTNVPKK
notes: Arf3p, S. cerevisiae; T31N; plasmid pET32a-ARF3 (T31N); pET32a usually adds thioredoxin, His and S tags before the insert
On to B2, for which, in the assay with GST-Snf1 (S. cerevisiae), the binding result is reported as “binds”.

B3: dominant-negative Arf3p^T31N (in yeast) (protein, UniProt P40994 1-183)
chain: B2 chain
Consider B3, for which the binding entry in the assay with Snf1p-HA (S. cerevisiae) was “binds”.

B4: Arf3p (wild type, in yeast) (protein, UniProt P40994 1-183)
chain: B2 chain with N31T
Take B4: the binding result (in the assay with Snf1p-HA (S. cerevisiae); in assay [1]) was “binds” throughout.
